This note sets out measurements from the supplement of paper PMC8728848.

Some of the results follow.

What all share (test): glycan array binding signal (z-score within array); higher = stronger binding
What all share (settings): glycan notation: IUPAC condensed, linker removed

The target in assay [1] is Gal(b1-4)GlcNAc(b1-2)Man(a1-3)[Gal(b1-4)GlcNAc(b1-2)Man(a1-6)]Man(b1-4)GlcNAc(b1-4)GlcNAc. The gist of the method: (§1)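 Glycan array data came from 3228 arrays in the Consortium for Functional Glycomics database, and only arrays with an available protein sequence were kept. Glycan names were put into IUPAC-condensed notation, and columns mapping to the same glycan were averaged. The binding signal is a within-array Z-score, averaged across arrays of one protein sequence run at different concentrations or buffers and across linkers. A negative Z-score can be read as non-binding.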

Assay [2] has as its target Gal(b1-4)GlcNAc(b1-2)Man(a1-3)[Gal(b1-4)GlcNAc(b1-2)Man(a1-6)]Man(b1-4)GlcNAc(b1-4)[Fuc(a1-6)]GlcNAc. An outline of the steps:
as §1

The target of assay [3] is Gal(b1-4)GlcNAc(b1-2)Man(a1-3)[Gal(b1-4)GlcNAc(b1-2)Man(a1-6)][Gal(b1-4)GlcNAc(b1-4)]Man(b1-4)GlcNAc(b1-4)[Fuc(a1-6)]GlcNAc. An outline of the steps:
as §1

In assay [4] the target is Gal(b1-4)GlcNAc(b1-2)Man(a1-3)[Gal(b1-4)GlcNAc(b1-2)Man(a1-6)][GlcNAc(b1-4)]Man(b1-4)GlcNAc(b1-4)[Fuc(a1-6)]GlcNAc. The gist of the method: as §1
Assay [5] deals with Gal(b1-4)GlcNAc(b1-2)Man(a1-3)[GlcNAc(b1-2)Man(a1-6)]Man(b1-4)GlcNAc(b1-4)GlcNAc. The gist of the method: as §1
In assay [6] the target is Gal(b1-4)GlcNAc(b1-2)Man(a1-3)[GlcNAc(b1-4)][Gal(b1-4)GlcNAc(b1-2)Man(a1-6)]Man(b1-4)GlcNAc(b1-4)GlcNAc. An outline of the steps:
as §1

Assay [7] deals with Gal(b1-4)GlcNAc(b1-2)Man(a1-3)[Man(a1-6)]Man(b1-4)GlcNAc(b1-4)GlcNAc. An outline of the steps:
as §1

Assay [8] concerns the target Gal(b1-4)GlcNAc(b1-2)Man(a1-6)Man(b1-4)GlcNAc(b1-4)GlcNAc. The gist of the method: as §1
Assay [9] concerns the target Gal(b1-4)GlcNAc(b1-2)Man(a1-6)[GlcNAc(b1-2)Man(a1-3)]Man(b1-4)GlcNAc(b1-4)GlcNAc. An outline of the steps: as §1
For assay [10], the target named is Gal(b1-4)GlcNAc(b1-2)Man(a1-6)[Man(a1-3)]Man(b1-4)GlcNAc(b1-4)GlcNAc. The gist of the method: as §1
Assay [11] addresses Gal(b1-4)GlcNAc(b1-2)[Gal(b1-4)GlcNAc(b1-4)]Man(a1-3)[Gal(b1-4)GlcNAc(b1-2)Man(a1-6)]Man(b1-4)GlcNAc(b1-4)GlcNAc. An outline of the steps:
as §1

In assay [12] the target is Gal(b1-4)GlcNAc(b1-2)[Gal(b1-4)GlcNAc(b1-4)]Man(a1-3)[Gal(b1-4)GlcNAc(b1-2)[Gal(b1-4)GlcNAc(b1-6)]Man(a1-6)]Man(b1-4)GlcNAc(b1-4)GlcNAc. The gist of the method:
as §1

Assay [13] concerns the target Gal(b1-4)GlcNAc(b1-2)[Gal(b1-4)GlcNAc(b1-4)]Man(a1-3)[GlcNAc(b1-4)][Gal(b1-4)GlcNAc(b1-2)Man(a1-6)]Man(b1-4)GlcNAc(b1-4)GlcNAc. The gist of the method:
as §1

Assay [14] addresses Gal(b1-4)GlcNAc(b1-2)[Gal(b1-4)GlcNAc(b1-4)]Man(a1-3)[GlcNAc(b1-4)][Gal(b1-4)GlcNAc(b1-2)[Gal(b1-4)GlcNAc(b1-6)]Man(a1-6)]Man(b1-4)GlcNAc(b1-4)GlcNAc. An outline of the steps:
as §1

Assay [15] addresses Gal(b1-4)GlcNAc(b1-2)[Gal(b1-4)GlcNAc(b1-6)]Man(a1-6)[Gal(b1-4)GlcNAc(b1-2)Man(a1-3)]Man(b1-4)GlcNAc(b1-4)GlcNAc. The gist of the method: as §1
Assay [16] addresses Gal(b1-4)GlcNAc(b1-2)[Gal(b1-4)GlcNAc(b1-6)]Man(a1-6)[Gal(b1-4)GlcNAc(b1-2)Man(a1-3)]Man(b1-4)GlcNAc(b1-4)[Fuc(a1-6)]GlcNAc. An outline of the steps: as §1
For assay [17], the target named is Gal(b1-4)GlcNAc(b1-2)[Gal(b1-4)GlcNAc(b1-6)]Man(a1-6)[GlcNAc(b1-4)][Gal(b1-4)GlcNAc(b1-2)Man(a1-3)]Man(b1-4)GlcNAc(b1-4)GlcNAc. An outline of the steps:
as §1

Assay [18] concerns the target Gal(b1-4)GlcNAc(b1-2)[Gal(b1-4)GlcNAc(b1-6)]Man(a1-6)[GlcNAc(b1-4)][Gal(b1-4)GlcNAc(b1-2)[Gal(b1-4)GlcNAc(b1-4)]Man(a1-3)]Man(b1-4)GlcNAc(b1-4)[Fuc(a1-6)]GlcNAc. The gist of the method:
as §1

The target of assay [19] is Gal(b1-4)GlcNAc(b1-3)Gal(b1-3)GalNAc. The gist of the method:
as §1

B1: PVL (Psathyrella velutina), Q309D1_9AGAR (protein)
chain: MSVVVISQALPVPTRIPGVADLVGFGNGGVYIIRNSLLIQVVKVINNFGYDAGGWRVEKHVRLLADTTGDNQPDVVGFGENGVWISTNNGNNTFVDPPKMVLANFAYAAGGWRVEKHIRFMADLRKTGRADIVGFGDGGIYISRNNGGGQFAPAQLALNNFGYAQGWRLDRHLRFLADVTGDGLLDVVGFGENQVYIARNSGNGTFQPAQAVVNNFCIGAGGWTISAHPRVVADLTGDRKADILGFGVAGVYTSLNNGNGTFGAVNLVLKDFGVNSGWRVEKHVRCVSSLTNKKVGDIIGFGDAGVYVALNNGNGTFGPVKRVIDNFGYNQGWRVDKHPRFVVDLTGDGCADIVGFGENSVWACMNKGDGTFGPIMKLIDDMTVSKGWTLQKTVRYAANLYL
As to B1, the “glycan array binding signal (z-score)” value in assay [1] is -0.369; in assay [2], -0.555; in assay [3] it was -0.373; in assay [4], -0.368; in assay [5], 0.543; in [6] it was -0.369. Further, the “glycan array binding signal (z-score)” value in [7] was -0.345; in assay [8] it was -0.366; in assay [9] it was 0.45; in assay [10], -0.359; in assay [11] it was -0.356; in assay [12], -0.366. For the same molecule, the “glycan array binding signal (z-score)” value was -0.36 in assay [13]; -0.365 in assay [14]; -0.369 in assay [15]; -0.334 in [16]; -0.363 in assay [17]; -0.367 in assay [18]. Besides, the “glycan array binding signal (z-score)” value in assay [19] was -0.121.
